# Results from the supplement of paper PMC8728848.
# Some of the results follow.
# B1: AMA (Arum maculatun) (protein)
# chain: MAKLLLLLLLPAIVGLAVPRSAAAVGSNYMLSGETLNTDGRLTNGELTLIMQVDCNLVLYHGGWQSNTANNGRDCKLTLTDFGELVIKSGTGSTVWSSGSKQSMKGNYAAVVHPEGRLVIYGPSVFKINPSGAGLNGLPLRNIPLTNNMLFSGQVLYGDGTLSARNHKLVMQGDCNMVLYGGKYGWQSNTHGNGKYCFAMLTHKGELVIRDDDFKSVWSSKSSSKQGDYVFILQDDSLAIIYGPAVFSTGSKKMISMVTN
# Assays:
# Experiment in all cases: glycan array binding signal (z-score within array); higher = stronger binding
# Settings in all cases: glycan notation: IUPAC condensed, linker removed
# Fuc(b1-3)GlcNAc = target: Fuc(b1-3)GlcNAc
# In short: (§1)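 Glycan array data were curated from 3228 arrays in the Consortium for Functional Glycomics database and kept only where the protein sequence was available. Glycan names were converted to IUPAC-condensed notation, and columns mapping to the same glycan were averaged. The binding signal is a within-array Z-score, averaged across arrays of the same protein sequence at different concentrations or buffers and across linkers. Negative Z-scores can be read as non-binding.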
# Gal(a1-2)Gal = target: Gal(a1-2)Gal
# In short: as §1
# Gal(a1-3)Gal = target: Gal(a1-3)Gal
# In short: as §1
# Gal(a1-3)Gal(b1-3)GlcNAc = target: Gal(a1-3)Gal(b1-3)GlcNAc
# In short: as §1
# [1] = target: Gal(a1-3)Gal(b1-3)GlcNAc(b1-2)Man
# In short: as §1
# [2] = target: Gal(a1-3)Gal(b1-3)GlcNAc(b1-2)Man(a1-3)[Gal(a1-3)Gal(b1-3)GlcNAc(b1-2)Man(a1-6)]Man(b1-4)GlcNAc(b1-4)GlcNAc
# In short: as §1
# [3] = target: Gal(a1-3)Gal(b1-3)GlcNAc(b1-3)GalNAc
# In short: as §1
# [4] = target: Gal(a1-3)Gal(b1-3)GlcNAc(b1-6)GalNAc
# In short: as §1
# [5] = target: Gal(a1-3)Gal(b1-3)[Fuc(a1-4)]GlcNAc(b1-2)Man(a1-3)[Gal(a1-3)Gal(b1-3)[Fuc(a1-4)]GlcNAc(b1-2)Man(a1-6)]Man(b1-4)GlcNAc(b1-4)GlcNAc
# In short: as §1
# Gal(a1-3)Gal(b1-4)Glc = target: Gal(a1-3)Gal(b1-4)Glc
# In short: as §1
# Gal(a1-3)Gal(b1-4)GlcNAc = target: Gal(a1-3)Gal(b1-4)GlcNAc
# In short: as §1
# [6] = target: Gal(a1-3)Gal(b1-4)GlcNAc(b1-2)Man
# In short: as §1
# [7] = target: Gal(a1-3)Gal(b1-4)GlcNAc(b1-2)Man(a1-3)[Gal(a1-3)Gal(b1-4)GlcNAc(b1-2)Man(a1-6)]Man(b1-4)GlcNAc(b1-4)GlcNAc
# In short: as §1
# [8] = target: Gal(a1-3)Gal(b1-4)GlcNAc(b1-3)GalNAc
# In short: as §1
# [9] = target: Gal(a1-3)Gal(b1-4)GlcNAc(b1-6)GalNAc
# In short: as §1
# [10] = target: Gal(a1-3)Gal(b1-4)[Fuc(a1-3)]GlcNAc
# In short: as §1
# [11] = target: Gal(a1-3)Gal(b1-4)[Fuc(a1-3)]GlcNAc(b1-2)Man(a1-3)[Gal(a1-3)Gal(b1-4)[Fuc(a1-3)]GlcNAc(b1-2)Man(a1-6)]Man(b1-4)GlcNAc(b1-4)GlcNAc
# In short: as §1
# Gal(a1-3)GalNAc = target: Gal(a1-3)GalNAc
# In short: as §1
# [12] = target: Gal(a1-3)[Gal(a1-4)]Gal(b1-4)GlcNAc
# In short: as §1
# [13] = target: Gal(a1-4)Gal(b1-3)GlcNAc(b1-2)Man(a1-3)[Gal(a1-4)Gal(b1-3)GlcNAc(b1-2)Man(a1-6)]Man(b1-4)GlcNAc(b1-4)GlcNAc
# In short: as §1
# Gal(a1-4)Gal(b1-4)Glc = target: Gal(a1-4)Gal(b1-4)Glc
# In short: as §1
# Gal(a1-4)Gal(b1-4)GlcNAc = target: Gal(a1-4)Gal(b1-4)GlcNAc
# In short: as §1
# [14] = target: Gal(a1-4)Gal(b1-4)GlcNAc(b1-2)Man(a1-3)[Gal(a1-4)Gal(b1-4)GlcNAc(b1-2)Man(a1-6)]Man(b1-4)GlcNAc(b1-4)GlcNAc
# In short: as §1
# [15] = target: Gal(a1-4)Gal(b1-4)GlcNAc(b1-3)Gal(b1-4)Glc
# In short: as §1
# Gal(a1-4)GlcNAc = target: Gal(a1-4)GlcNAc
# In short: as §1
# Gal(a1-6)Glc = target: Gal(a1-6)Glc
# In short: as §1
# Gal(b1-2)Gal = target: Gal(b1-2)Gal
# In short: as §1
# Gal(b1-3)Gal = target: Gal(b1-3)Gal
# In short: as §1
# Gal(b1-3)Gal(b1-4)GlcNAc = target: Gal(b1-3)Gal(b1-4)GlcNAc
# In short: as §1
# Gal(b1-3)GalNAc = target: Gal(b1-3)GalNAc
# In short: as §1
# [16] = target: Gal(b1-3)GalNAc(a1-3)[Fuc(a1-2)]Gal(b1-4)Glc
# In short: as §1
# [17] = target: Gal(b1-3)GalNAc(a1-3)[Fuc(a1-2)]Gal(b1-4)GlcNAc
# In short: as §1
# Gal(b1-3)GalNAc(b1-3)Gal = target: Gal(b1-3)GalNAc(b1-3)Gal
# In short: as §1
# [18] = target: Gal(b1-3)GalNAc(b1-3)Gal(a1-4)Gal(b1-4)Glc
# In short: as §1
# [19] = target: Gal(b1-3)GalNAc(b1-4)Gal(b1-4)Glc
# In short: as §1
# [20] = target: Gal(b1-3)GalNAc(b1-4)[Neu5Ac(a2-3)]Gal(b1-4)Glc
# In short: as §1
# Gal(b1-3)GlcNAc = target: Gal(b1-3)GlcNAc
# In short: as §1
# [21] = target: Gal(b1-3)GlcNAc(a1-3)Gal(b1-4)GlcNAc
# In short: as §1
binder,measurement,setting,value
B1,glycan array binding signal (z-score),Fuc(b1-3)GlcNAc,-0.164
same,glycan array binding signal (z-score),Gal(a1-2)Gal,-0.216
same,glycan array binding signal (z-score),Gal(a1-3)Gal,-0.22
same,glycan array binding signal (z-score),Gal(a1-3)Gal(b1-3)GlcNAc,-0.21
same,glycan array binding signal (z-score),[1],-0.191
same,glycan array binding signal (z-score),[2],-0.196
same,glycan array binding signal (z-score),[3],-0.217
same,glycan array binding signal (z-score),[4],-0.216
same,glycan array binding signal (z-score),[5],-0.17
same,glycan array binding signal (z-score),Gal(a1-3)Gal(b1-4)Glc,-0.212
same,glycan array binding signal (z-score),Gal(a1-3)Gal(b1-4)GlcNAc,-0.206
same,glycan array binding signal (z-score),[6],-0.212
same,glycan array binding signal (z-score),[7],1.15
same,glycan array binding signal (z-score),[8],-0.217
same,glycan array binding signal (z-score),[9],-0.216
same,glycan array binding signal (z-score),[10],-0.217
same,glycan array binding signal (z-score),[11],-0.083
same,glycan array binding signal (z-score),Gal(a1-3)GalNAc,-0.206
same,glycan array binding signal (z-score),[12],-0.196
same,glycan array binding signal (z-score),[13],5.86
same,glycan array binding signal (z-score),Gal(a1-4)Gal(b1-4)Glc,-0.214
same,glycan array binding signal (z-score),Gal(a1-4)Gal(b1-4)GlcNAc,-0.207
same,glycan array binding signal (z-score),[14],1.76
same,glycan array binding signal (z-score),[15],-0.216
same,glycan array binding signal (z-score),Gal(a1-4)GlcNAc,-0.135
same,glycan array binding signal (z-score),Gal(a1-6)Glc,-0.214
same,glycan array binding signal (z-score),Gal(b1-2)Gal,-0.128
same,glycan array binding signal (z-score),Gal(b1-3)Gal,-0.222
same,glycan array binding signal (z-score),Gal(b1-3)Gal(b1-4)GlcNAc,-0.208
same,glycan array binding signal (z-score),Gal(b1-3)GalNAc,-0.217
same,glycan array binding signal (z-score),[16],-0.223
same,glycan array binding signal (z-score),[17],-0.216
same,glycan array binding signal (z-score),Gal(b1-3)GalNAc(b1-3)Gal,-0.214
same,glycan array binding signal (z-score),[18],-0.217
same,glycan array binding signal (z-score),[19],-0.209
same,glycan array binding signal (z-score),[20],-0.199
same,glycan array binding signal (z-score),Gal(b1-3)GlcNAc,-0.215
same,glycan array binding signal (z-score),[21],-0.22
